Data taken from PMC4336329 (PLoS ONE, 2015).
Out of some 310,000 compounds screened, about 14,000 (4.5%) showed an effect of 50% or more. The effect is printed as a negative number. This is one part of the list.

Each molecule was assayed against human ether-à-go-go-related gene (hERG) potassium channel (human, UniProt Q12809) (assay: primary screen, population patch clamp on CHO cells stably expressing hERG).
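Further: peak tail current of the secondary pulse compared with the same well before compound.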

Chain of human ether-à-go-go-related gene (hERG) potassium channel (Q12809 whole entry, looked up): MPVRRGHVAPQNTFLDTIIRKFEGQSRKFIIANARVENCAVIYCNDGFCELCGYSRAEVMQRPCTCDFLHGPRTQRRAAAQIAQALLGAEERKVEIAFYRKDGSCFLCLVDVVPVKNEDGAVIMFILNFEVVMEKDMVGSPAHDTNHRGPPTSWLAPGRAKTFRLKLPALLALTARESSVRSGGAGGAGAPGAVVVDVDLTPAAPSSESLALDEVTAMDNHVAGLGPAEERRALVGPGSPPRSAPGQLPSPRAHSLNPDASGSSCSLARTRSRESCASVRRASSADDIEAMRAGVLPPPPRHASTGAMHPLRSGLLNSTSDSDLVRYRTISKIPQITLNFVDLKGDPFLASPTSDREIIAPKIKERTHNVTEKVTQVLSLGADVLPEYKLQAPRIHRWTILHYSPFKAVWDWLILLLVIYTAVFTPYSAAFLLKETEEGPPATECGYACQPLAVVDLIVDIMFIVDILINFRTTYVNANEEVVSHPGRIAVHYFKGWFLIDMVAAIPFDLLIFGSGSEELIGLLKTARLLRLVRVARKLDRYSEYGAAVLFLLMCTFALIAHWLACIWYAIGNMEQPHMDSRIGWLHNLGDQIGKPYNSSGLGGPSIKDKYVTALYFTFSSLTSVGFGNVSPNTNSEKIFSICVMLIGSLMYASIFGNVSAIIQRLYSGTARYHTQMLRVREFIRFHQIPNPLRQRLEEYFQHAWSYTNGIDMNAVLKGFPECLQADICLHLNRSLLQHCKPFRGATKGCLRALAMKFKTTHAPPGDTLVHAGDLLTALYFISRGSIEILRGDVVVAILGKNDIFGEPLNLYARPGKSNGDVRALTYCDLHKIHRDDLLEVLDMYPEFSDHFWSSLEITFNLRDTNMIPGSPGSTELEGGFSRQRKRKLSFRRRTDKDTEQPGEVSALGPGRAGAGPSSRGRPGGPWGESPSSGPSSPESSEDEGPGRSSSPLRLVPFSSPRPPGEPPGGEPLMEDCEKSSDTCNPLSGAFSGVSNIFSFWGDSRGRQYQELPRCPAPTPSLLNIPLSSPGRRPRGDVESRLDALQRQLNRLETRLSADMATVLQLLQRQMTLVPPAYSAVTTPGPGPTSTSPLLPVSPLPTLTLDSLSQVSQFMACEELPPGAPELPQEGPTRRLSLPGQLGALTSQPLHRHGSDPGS

Row | SMILES | hERG current change (%, negative = inhibition) at 10uM [%]
1 | CC(=O)Nc1ccc2[nH]c(C)c(CC=C(Cl)Cl)c(=O)c2c1 | 11.9
2 | FC(F)(F)c1cccc(NC(=S)NCCN2CCOCC2)c1 | -21.1
3 | COc1ccc(-c2noc(=O)n2Cc2ccccc2Cl)cc1 | -8.73
4 | COc1ccc(CCN2C(=S)N(C)C(=O)C2CC(=O)Nc2ccc(OC)cc2)cc1 (stereo not drawn) | -8.73
5 | Cc1cc(C)n2nc(CCc3ccccc3)nc2n1 | -12.8
6 | Cc1ccc2nc(NCc3ccccc3)c(C=NCc3ccccc3)c(=O)n2c1 | 1.68
7 | Cc1ccc(O)c(Sc2cc(C)ccc2O)c1 | 6.41
8 | COc1ccc(NC(=O)NNS(=O)(=O)c2ccc(Br)cc2)cc1 | 25.3
9 | Cc1sc2ncn(CC(=O)N3CCOCC3)c(=O)c2c1-c1ccccc1 | 1.16
10 | Cc1cc(=O)[nH]c(SCC(=O)N2CCCC(C)C2)n1 (stereo not drawn) | 11.3
11 | CNC(=O)c1cc(NC(=O)CCn2nc(-c3ccc(C)cc3)c3ccccc3c2=O)ccc1OC | 9.64
12 | CCN(CC)Cc1c(-c2ccccc2)[nH]c2ccc(C)cc2c1=O | -6.74
13 | CNC(=O)CC1C(=O)N(c2ccc(F)cc2)C(=S)N1NC(=O)c1ccc(Cl)cc1 (stereo not drawn) | -3.12
14 | Cc1ccc(C2c3c(oc4ccccc4c3=O)C(=O)N2CCCN2CCOCC2)o1 (stereo not drawn) | -5.18
15 | CCC(CC)C(=O)N1CCN(c2cccc(C)c2C)CC1 | 3.07
16 | COC(=O)c1c(NS(=O)(=O)c2cccs2)sc2c1CCCC2 | 4.33
17 | Cc1ccc2[nH]c(O)c(N=NC(=O)C(C)n3cnc4ccccc4c3=O)c2c1 (stereo not drawn) | -10.4
18 | CC1CC(C)CN(CC(C)(C)NS(=O)(=O)c2ccccc2)C1 (stereo not drawn) | -13.7
19 | CC1(c2ccc(OC(F)F)cc2)NC(=O)N(CC(=O)Nc2ccc3c(c2)OCO3)C1=O (stereo not drawn) | -36.5
20 | Cc1cccc(NC(=O)c2ccc(C(=O)Nc3cccc(C)c3)nc2)c1 | 23.2
21 | S=C(NCCc1ccccn1)Nc1ccc(Cl)cc1Cl | -30.4
22 | CC(=O)Nc1ccc(C(=O)OCC(=O)Nc2ccccc2Sc2ccccc2)cc1 | 7.12
23 | Cc1ccc(SCC(=O)Nc2cccnc2)cc1 | 14.2

Row | SMILES | hERG current change (%, negative = inhibition) at 10uM [%]
24 | CCN(CC)S(=O)(=O)c1ccc(NC(=S)Nc2ccc(F)cc2)cc1 | 1.59
25 | CCN(CC)CCOC(=O)CCc1cccc2ccccc12.O=C(O)C(=O)O | -42.6
26 | O=C(Nc1cc(S(=O)(=O)N2CCCCC2)ccc1N1CCCCC1)C1CC1 | -29.3
27 | Cl.NC(CC(=O)O)c1ccc(Br)cc1 (stereo not drawn) | 0.265
28 | Cl.O=C(CN1CCCCC1)N1c2ccccc2Sc2ccc(C(F)(F)F)cc21 | -31.1
29 | Oc1ccccc1C1=Nc2ncnn2C(c2ccccc2)C1 (stereo not drawn) | -16.6
30 | CCOc1ccc(Nc2nc3c(c(=O)[nH]2)CCCC3)cc1 | -3.98
31 | CCN(Cc1ccccc1)S(=O)(=O)c1cc(C(=O)NC(C)C2CC3CCC2C3)ccc1OC (stereo not drawn) | 3.23
32 | Cc1cc(NC(=O)C(Cl)c2ccccc2)no1 (stereo not drawn) | -0.0237
33 | COc1ccc(C(=O)C2CCCN(Cc3ccon3)C2)c(OC)c1 (stereo not drawn) | -53.9
34 | CC(OC(=O)c1ccc(NS(=O)(=O)c2ccc3[nH]c(=O)[nH]c3c2)cc1)C(N)=O (stereo not drawn) | 18.1
35 | CCOc1ccc(NC(=O)CN2CCN(CC(=O)Nc3ccc(OC)cc3OC)CC2)cc1 | -74.2
36 | O=C(CCS(=O)(=O)c1ccc(Br)cc1)N1CCN(c2ccc(Cl)cc2)CC1 | -9.11
37 | COc1cc(NS(=O)(=O)c2ccc(C)cc2)c2ncccc2c1 | -3.47
38 | CC(CNC(=O)Cn1ccc(N)nc1=O)c1ccccc1 (stereo not drawn) | 6.63
39 | c1ccc(Cn2nnc3ccccc32)cc1 | 8.88
40 | CC(C)O.CCc1ccc(-n2c(O)c(/C=N/N3CCCCC3c3cccnc3)c(=O)[nH]c2=O)cc1 (stereo not drawn) | 13
41 | COc1ccc(-c2cc(O)cc(O)c2)cc1 | -3.33
42 | CN(Cc1ccccc1)Cc1c(O)ccc2ccccc12 | 7.65
43 | Cc1cc2[nH]c(=O)c3ccccc3n2n1 | 3.95
44 | Cc1nnc2ccc(N3CCC4(CC3)OCCO4)nn12 | 2.06
45 | CCS(=O)(=O)NCC(c1cccnc1)N1CCN(c2ccc(OC)cc2)CC1 (stereo not drawn) | -11.3
46 | O=C(O)CCC(=O)N1CCN(c2nc(-c3ccccc3Cl)c3cc(Br)ccc3n2)CC1 | -1.78

Row | SMILES | hERG current change (%, negative = inhibition) at 10uM [%]
47 | CN1CCCCc2c1nc1ccccc1c2N.O=C(O)c1cncc(Br)c1 | -82.5
48 | COc1cc(C2C3C(=O)N(c4ccccc4)C(=O)C3ON2c2ccccc2)ccc1O (stereo not drawn) | 17.3
49 | Cc1ccc(C(=O)NC(=S)NCC2CCCO2)cc1 (stereo not drawn) | 4.03
50 | CC(=O)c1cccc(NC(=O)C2CC(=O)N(Cc3ccccc3)C2)c1 (stereo not drawn) | 2.85
51 | O=C(COC(=O)c1nc(Cl)ccc1Cl)NCc1cccs1 | 1.99
52 | C=CCNC1=C(Cl)C(=O)c2ccccc2C1=O | 4.26
53 | COc1ccc(C(c2nnnn2C2CCCC2)N2CCN(C3CCCC3)CC2)cc1OC.Cl (stereo not drawn) | -22.7
54 | COc1ccccc1OC(C)C(=O)Nc1ccc2c(c1)OCCO2 (stereo not drawn) | -0.873
55 | O=C(OCC(=O)N1CCCC1=O)C1COc2ccccc2O1 (stereo not drawn) | 24.8
56 | CCN1CCN(C(=O)C2=CC(c3ccc(OC)cc3)=NS(=O)(=O)N2C)CC1 | -2.99
57 | Cc1ccc(-n2nc3c([n+]2[O-])CCc2nonc2-3)cc1 | 18.6
58 | CN(CC(=O)Nc1c(Cl)cccc1Cl)C(=O)c1ccc2nc[nH]c2c1 | 9.64
59 | Cn1cnnc1SCCC(=O)Nc1ccc(Cl)cc1 | 12
60 | Cc1ccc(-c2nc(-c3cccnc3)no2)c(C)c1 | 11.9
61 | COC(=O)c1cc(OC)c(OC)c(OC)c1NC(=O)c1ccc(S(=O)(=O)N(C)C)cc1 | 1.07
62 | CC(=O)c1ccc(Cl)c(Cl)c1Cl | 9.6
63 | CCc1nc(Cl)c(C#N)c2c1CCCC2 | -1.73
64 | O=C(CSc1nc2ccccc2o1)N/N=C/c1ccc(O)c(O)c1 | -19.4
65 | Cc1ccc(NC(=O)CSCc2ccco2)cc1 | 21.7
66 | N#Cc1c(SCc2ccccc2)sc(C(=O)c2ccccc2)c1N | 2.97
67 | O=S(=O)(Nc1ccc(Cc2ccncc2)cc1)N1CCCC1 | -15.6
68 | Cc1cnc(NC(=O)c2ccc3c(c2)C(=O)N(Cc2cccnc2)C3=O)s1 | 10.6
69 | O=C(c1ccccc1)N(Cc1cccc(Br)c1)C1CCS(=O)(=O)C1 (stereo not drawn) | -7.59

Row | SMILES | hERG current change (%, negative = inhibition) at 10uM [%]
70 | Fc1ccc(CNc2nc(-c3cccnc3)nc3ccccc23)cc1 | -50.4
71 | Cc1ccccc1NC(=O)/C(C#N)=C/c1ccc(-c2ccc(Cl)c(C(=O)O)c2)o1 | 25.3
72 | Cc1ccc(CCNC(=O)c2nc(CS(=O)(=O)c3ccc(Cl)cc3)no2)cc1 | 31.6
73 | CCN1C(=O)[C@H]2[C@@H](c3ccc(C)cc3)N3C(=O)N(c4cccc(C)c4)C(=O)[C@@]3(Cc3ccccc3)[C@H]2C1=O | 7.13
74 | CCN(CC)CC(=O)N1c2ccccc2Sc2ccc(Cl)cc21.Cl | -10.3
75 | Cc1cc(NC(=O)C2Oc3ccccc3OC2C)no1 (stereo not drawn) | 6.59
76 | Cc1ccc(NC(=O)CSCC(=O)Nc2ccc(N3CCOCC3)c(Cl)c2)cc1 | -11.4
77 | CC1CCN(C(=O)c2ccc(COc3ccccc3Cl)o2)CC1 | -15
78 | Oc1ccc2ccccc2c1/C=N/Nc1nnc(-c2ncc[nH]2)c2ccccc12 | 18.4
79 | c1ccc(NC(=NCc2ccco2)c2ccccc2)cc1 | -17.6
80 | CCOC(=O)Cc1nnc(NC(=O)c2ccco2)s1 | 1.13
81 | O=C(COC(=O)/C=C/c1ccccc1[N+](=O)[O-])NCC(F)(F)F | 4.18
82 | CCCCCSc1cc(OC)c(CCN)cc1OC.O=C(O)/C=C\C(=O)O | -35.9
83 | O=C(Nc1ccc(Cc2ccncc2)cc1)c1ccc(N2CCOCC2)c([N+](=O)[O-])c1 | -59.1
84 | COc1ccc(CCNC(=O)c2c(N)n(CCN3CCOCC3)c3nc4ccccc4nc23)cc1OC | -8.6
85 | CCOC(=O)/C(=C/c1c[nH]c2ccccc12)NC(C)=O | -3.03
86 | O=C(Cc1ccccc1)NCC(=O)N1CCN(c2ccccc2)CC1 | 5.93
87 | CC(Oc1ccc(Cl)cc1Cl)C(=O)NN=C1CCN(C)CC1 (stereo not drawn) | -4.7
88 | CCC(=O)Nc1ccccc1Oc1ccccc1 | 0.62
89 | Cc1cc(C)c(S(=O)(=O)/N=C2\C=C(NS(=O)(=O)c3ccccc3)C(=O)c3ccccc32)c(C)c1 | 6.25
90 | O=[N+]([O-])c1cccc2nc(-c3ccccc3)c(-c3ccccc3)nc12 | -37.8
